# Reference: ChEMBL document CHEMBL4888484, “Replenishing the malaria drug discovery pipeline: Screening and hit evaluation of the MMV Hit Generation Library 1 (HGL1) against asexual blood stage Plasmodium falciparum ,using a nano luciferase reporter read-out” (2022)
# The campaign covered roughly 150,000 compounds. About 540 (0.36%) showed an effect of 50% or more. Some of the results follow.
# Test system: Plasmodium falciparum
# Test: Primary screen in NF54 nanoGlo assay, in single point, at 2uM, 72h; a lower Z score goes with more inhibition
# Type: functional, Erythrocyte
# Conditions: timepoint 72 hour
Structure (SMILES),% Inhibition [%],Z score
COc1ccc(/N=C2/[C@@H](N3CCN(C)CC3)C3(CCCCC3)C(=O)N2c2ccccc2)cc1,-29,3.35
C[C@@H](N)c1nc(-c2ccc(F)c(F)c2)nn1CC(C)(C)O,-6,0.89
CC(C)(CNC(=O)c1cccs1)CNC(=O)c1cccs1,-11,2
O=C1CCCN1c1ccc(NCc2cccc(O)c2)cc1F,-2,0.32
Cc1nc(O)cc(CN2CCOCC2)n1,-18,3.45
Cc1nnc(Cn2ccc(-c3cccc(-c4cnn5cccnc45)c3)n2)o1,-6,1.21
C[C@H](Nc1ccc2c(c1)C(=O)NC2)c1ccc(S(C)(=O)=O)cc1,1,-0.09
CC(C)c1cc(N2CCC[C@H](CS(C)(=O)=O)C2)nc(N)n1,2,-0.23
COC(=O)c1cccc(S(=O)(=O)N2CCC[C@H](c3ccnc(N)n3)C2)c1C,-9,1.04
O=c1c(NCc2ccc(Cl)cc2)nc2ccncc2n1Cc1ccccc1,31,-3.01
Cn1cc(C(=O)N2CCC(Cc3ccc(F)c(F)c3)CC2)c(=O)[nH]c1=O,-2,0.33
CC(C)CN(CCC(=O)NC1CC1)C(=O)c1cc(-c2ccccc2Cl)on1,3,-0.29
CC(C)c1ccc(NC(=O)C2[C@@H]3C=C[C@]4(O3)C(C(=O)NC3CCCCC3C)N(Cc3cccnc3)C(=O)[C@H]24)cc1 (some centres not stated),19,-3.04
CCn1cc([C@H](CC(=O)NCCCN2CCOCC2)c2cc(OC)cc(OC)c2)c2ccccc21,-23,2.31
O=C(NCc1cnc2n1CCOC2)c1cnn(CCC(F)(F)F)c1,-5,0.62
CC(C)COC[C@@H](O)CN1CCN(Cc2nc(C(=O)Nc3ccc4c(c3)CCC4)co2)CC1,-16,2.93
CCC(C)C(NS(=O)(=O)CC1CCCCC1)C(N)=O (configuration not stated),-4,0.69
CC(C)COc1ccc(NC(=O)N2C[C@H]3C[C@H](O)[C@H](O)C[C@H]3C2)cc1,-16,1.6
COCc1noc(C[C@H]2CCOC3(CCN(C(=O)c4n[nH]c5ccccc45)CC3)C2)n1,5,-0.74
CCc1n[nH]c(C(=O)N2CCC3(CC2)C[C@H](c2ccccc2)CN3C)c1C,3,-0.6
COc1ccccc1C[C@H]1CCCN(C(=O)Cc2cc(C)on2)C1,1,-0.24

Structure (SMILES),% Inhibition [%],Z score
CCN1CCN(CC(=O)N(CCc2ccccc2)C2CCCCC2)CC1,-5,1.06
CCc1ccc(C(=O)N(Cc2ccco2)C2CC2)o1,-9,1.32
CC(C)c1csc(-c2nc([C@H]3CCOC3)no2)n1,-6,1.22
CCOc1ncccc1CNC(=O)c1ccc2c(c1)OCO2,-6,0.58
CC1CN(C(=O)c2n[nH]c3ccccc23)CC(C)O1 (configuration not stated),33,-0.86
CNC(=O)c1nsc(C(=O)N2CCN(c3ccc(Cl)cc3)CC2)c1N,-12,1.42
CCOC(C)C(=O)OC1CCCN(C(=O)OC(C)(C)C)C1 (configuration not stated),-13,1.95
COc1ccc2oc(CNC(=O)N(C)CC3CCOCC3)nc2c1,-2,0.33
Cc1ccc2[nH]c([C@H](C)NC(=O)c3cnc(-c4ccccn4)nc3O)nc2c1,-13,1.32
Cc1nc2c(c(N3CCC(NC(=O)c4ccc5[nH]cnc5c4)CC3)n1)CCCC2,-5,0.63
CC(C)[C@H](NC(=O)OC(C)(C)C)C(=O)N1CCCN(C)CC1,-9,0.72
C[C@@H]1Oc2cc(S(=O)(=O)N3CCN(C(=O)c4ccnn4C)CC3)c(Cl)cc2NC1=O,1,-0.14
CCN(C(=O)c1nn(CC2CC2)c2c1COCC2)C(C)C,5,-0.61
COc1ccccc1NC(=O)C(=O)N1CCO[C@H](c2ccccc2)C1,5,-0.52
COc1cc2c(cc1OC)C1(CCCC1)CN(C(C)=O)C2,-8,1.1
O=C(C1CCS(=O)(=O)C1)N1CCCC1CC1CC2CCC1C2 (configuration not stated),-5,0.59
O=C(c1ccccc1-c1ccccc1)N1C[C@@H](CN2CCCCCC2)[C@@H](CO)C1,-16,3.01
O[C@H]1CN[C@H](c2nc(-c3c[nH]c4ccccc34)nn2CC(F)(F)F)C1,-9,1.61
OCc1cn(CCCN[C@@H](Cc2ccc(Br)cc2)C2CCC2)nn1,-10,1.85
CCNC(=O)N1CCC[C@H](Cn2cnc3ccccc32)C1,-8,1.54
